Test results reported in the CheMixHub viscosity set.
Further values from the same series stand in other lists.

Assay: xn = mol fraction of the nth substance listed
Details: 318.15 K, 101.33 kPa

CC(N)CN (centres undefined) + OCCCCO
Details	viscosity [mPa·s]
x2 = 0.2606	4.01
x2 = 0.3069	5.24
x2 = 0.3541	6.72
x2 = 0.4022	8.58
x2 = 0.4513	10.55
x2 = 0.5013	13.95
x2 = 0.5523	16.78
x2 = 0.6043	21.01
x2 = 0.6574	23.69
x2 = 0.7116	27.62
x2 = 0.7669	29.89
x2 = 0.8233	31.77
x2 = 0.881	32.25
x2 = 0.9399	32.15
